EC50 and survival rate data for 40 compounds are collected here from patent publication US10596171B2, “Cap-dependent endonuclease inhibitors” (priority 2018, dated 2020).

The first assay relates to influenza A virus. The assay is described as follows: microbe, parasite or virus in culture. To be noted: MDCK, 72 h, read-out: EC50 (reduce virus-induced CPE by 50%).
In general, EC50 refers to the concentration needed to bring the measured effect to its halfway point. Consider `[2H]c1c([2H])c([2H])c2c(c1[2H])SCc1c(ccc(F)c1F)[C@@H]2N1CC2(CC2)C(=O)c2c(O)c(=O)ccn21` [Compound 39], for which the concentration for a half-maximal effect (EC50) is less than 100 nM.
Turning to `O=C1c2c(O)c(=O)ccn2N(C2c3ccc(Cl)c(F)c3CSc3c(F)cccc32)CC12CC2` (stereo not shown) [Compound 24], the EC50 fell in the range of 100 to 1000 nM.
In the case of `O=C1c2c(O)c(=O)ccn2N(C2c3ccc(F)cc3CSc3c(F)cccc32)CC12CC2` (stereo not shown) [Compound 5], the EC50 was less than 100 nM.
The same measure, in the same setting: then `CC1CC12CN(C1c3ccc(F)c(F)c3CSc3c(F)cccc31)n1ccc(=O)c(O)c1C2=O` (stereo not shown) [Compound 35], with less than 100 nM; and `Cc1cc(=O)c(O)c2n1N(C1c3ccc(F)c(F)c3CSc3c(F)cccc31)CC1(CC1)C2=O` (stereo not shown) [Compound 30], with less than 100 nM.
The same measure, in the same setting: then `O=C1c2c(O)c(=O)ccn2N(C2c3ccccc3SCc3c2ccc(F)c3F)CC12CC2` (stereo not shown) [Compound 2], with less than 100 nM; and `Cc1cccc2c1SCc1c(ccc(F)c1F)C2N1CC2(CC2)C(=O)c2c(O)c(=O)cc(C)n21` (stereo not shown) [Compound 31], with 100 to 1000 nM.
Same read-out and setting: with `O=C1c2c(O)c(=O)ccn2N(C2c3ccccc3CSc3c(F)cccc32)CC12CC2` (stereo not shown) [Compound 9] the figure was less than 100 nM; with `CCC1CC12CN(C1c3ccccc3SCc3c1ccc(F)c3F)n1ccc(=O)c(O)c1C2=O` (stereo not shown) [Compound 37], less than 100 nM.
With `Cc1cccc2c1SCc1ccccc1C2N1CC2(CC2)C(=O)c2c(O)c(=O)ccn21` (stereo not shown) [Compound 11], the concentration for a half-maximal effect (EC50) lay within 100 to 1000 nM.
On the same count and under the same terms, then `O=C1c2c(O)c(=O)ccn2N(C2c3ccc(F)c(F)c3CSc3c(F)cccc32)CC12CC2` (stereo not shown) [Compound 17], with less than 100 nM; and `O=C1c2c(O)c(=O)ccn2N(C2c3ccc(Cl)cc3CSc3ccccc32)CC12CC2` (stereo not shown) [Compound 4], with less than 100 nM; and `CC1N(C2c3ccc(F)c(F)c3CSc3c(F)cccc32)n2ccc(=O)c(O)c2C(=O)C12CC2` (stereo not shown) [Compound 26], with 100 to 1000 nM.
Still for that read-out and setting: then `O=C1c2c(O)c(=O)ccn2N(C2c3ccc(F)cc3CSc3c(Cl)cccc32)CC12CC2` (stereo not shown) [Compound 3], with less than 100 nM; and `Cc1cccc2c1SCc1c(ccc(F)c1F)C2N1C(C)C2(CC2)C(=O)c2c(O)c(=O)ccn21` (stereo not shown) [Compound 27], with less than 100 nM; and `O=C(O)C1CC12CN(C1c3ccccc3SCc3c1ccc(F)c3F)n1ccc(=O)c(O)c1C2=O` (stereo not shown) [Compound 33], with less than 100 nM.
The same measure, in the same setting: then `O=C1c2c(O)c(=O)ccn2N(C2c3ccccc3SCc3c2ccc(Cl)c3F)CC12CC2` (stereo not shown) [Compound 19], with less than 100 nM.
As to `Cc1cccc2c1SCc1cc(Cl)ccc1C2N1CC2(CC2)C(=O)c2c(O)c(=O)ccn21` (stereo not shown) [Compound 6], the concentration giving a half-maximal response (EC50) is less than 100 nM.
The same measure, in the same setting: with `Cc1cccc2c1SCc1cc(F)ccc1C2N1CC2(CC2)C(=O)c2c(O)c(=O)ccn21` (stereo not shown) [Compound 7] the figure was less than 100 nM; with `Cc1cccc2c1SCc1c(F)cccc1C2N1CC2(CC2)C(=O)c2c(O)c(=O)ccn21` (stereo not shown) [Compound 10], less than 100 nM.
Still for that read-out and setting: then `O=C1c2c(O)c(=O)ccn2N(C2c3ccc(Cl)c(F)c3CSc3c(Cl)cccc32)CC12CC2` (stereo not shown) [Compound 23], with 100 to 1000 nM; and `O=C1c2c(O)c(=O)ccn2N(C2c3ccc(F)c(F)c3CSc3c(Cl)cccc32)CC12CC2` (stereo not shown) [Compound 18], with less than 100 nM; and `C=CC1N(C2c3ccccc3SCc3c2ccc(F)c3F)n2ccc(=O)c(O)c2C(=O)C12CC2` (stereo not shown) [Compound 25], with less than 100 nM.
As for `CC1N(C2c3ccccc3SCc3c2ccc(F)c3F)n2ccc(=O)c(O)c2C(=O)C12CC2` (stereo not shown) [Compound 21], the half-maximal effective concentration (EC50) is less than 100 nM.
On the same count and under the same terms, then `O=C1c2c(O)c(=O)ccn2N(C2c3ccc(F)cc3CSc3ccccc32)CC12CC2` (stereo not shown) [Compound 8], with less than 100 nM; and `Cc1cccc2c1SCc1c(ccc(F)c1F)C2N1CC2(CC2)C(=O)c2c(O)c(=O)ccn21` (stereo not shown) [Compound 16], with less than 100 nM; and `O=C1c2c(O)c(=O)ccn2N(C2c3ccccc3CSc3c(Cl)cccc32)CC12CC2` (stereo not shown) [Compound 13], with less than 100 nM.
Same read-out and setting: with `Cc1cc(=O)c(O)c2n1N(C1c3ccccc3SCc3c1ccc(F)c3F)CC1(CC1)C2=O` (stereo not shown) [Compound 28] the figure was less than 100 nM.
On to `Cc1cccc2c1SCc1c(ccc(F)c1F)C2N1CC2(CC2C)C(=O)c2c(O)c(=O)ccn21` (stereo not shown) [Compound 36], for which the concentration giving a half-maximal response (EC50) is less than 100 nM.
Same read-out and setting: then `O=C1c2c(O)c(=O)ccn2N(C2c3ccccc3SCc3c2ccc(F)c3F)CC12CC2COCc1ccccc1` (stereo not shown) [Compound 34], with 100 to 1000 nM; and `O=C1c2c(O)c(=O)ccn2N(C2c3cccc(F)c3CSc3c(Cl)cccc32)CC12CC2` (stereo not shown) [Compound 12], with 100 to 1000 nM; and `O=C1c2c(O)c(=O)ccn2N(C2c3ccc(F)cc3COc3c(Cl)cccc32)CC12CC2` (stereo not shown) [Compound 15], with 100 to 1000 nM.
Same read-out and setting: with `O=C1c2c(O)c(=O)ccn2N(C2c3ccccc3SCc3c(F)cccc32)CC12CC2` (stereo not shown) [Compound 1, 1-(1-Fluoro-5,11-dihydro-10-thia-dibenzo[a,d]cyclohepten-5-yl)-5-hydroxy-3,3-cyclopropyl-2,3-dihydro-1H-pyrido[1,2-b]pyridazine-4,6-dione] the figure was less than 100 nM; with `O=C1c2c(O)c(=O)ccn2N(C2c3ccccc3SCc3cccc(Br)c32)CC12CC2` (stereo not shown) [Compound 29], less than 100 nM.
Same read-out and setting: with `CC1CC12CN(C1c3ccccc3SCc3c1ccc(F)c3F)n1ccc(=O)c(O)c1C2=O` (stereo not shown) [Compound 20] the figure was less than 100 nM; with `COCC1CC12CN(C1c3ccccc3SCc3c1ccc(F)c3F)n1ccc(=O)c(O)c1C2=O` (stereo not shown) [Compound 38], less than 100 nM; with `CCC1N(C2c3ccccc3SCc3c2ccc(F)c3F)n2ccc(=O)c(O)c2C(=O)C12CC2` (stereo not shown) [Compound 22], less than 100 nM.
In the case of `CCOC(=O)C1CC12CN(C1c3ccccc3SCc3c1ccc(F)c3F)n1ccc(=O)c(O)c1C2=O` (stereo not shown) [Compound 32], the EC50 was less than 100 nM.
Still for that read-out and setting: then `O=C1c2c(O)c(=O)ccn2N(C2c3ccc(Cl)cc3CSc3c(F)cccc32)CC12CC2` (stereo not shown) [Compound 14], with 100 to 1000 nM.

In another assay the test system is influenza A virus.
Test: not given
To be noted: mouse, in vivo.
Compound `CCOC(=O)C1=C[C@@H](OC(CC)CC)[C@H](NC(C)=O)[C@@H](N)C1` [oseltamivir] displayed a survival rate of 16.7%.
